Reference: PubChem BioAssay AID504333 (National Center for Advancing Translational Sciences (NCATS), 2011)
In all, about 360,000 compounds went through this assay and about 16,000 (4.4%) were called active. The shares of active, inactive and inconclusive entries below differ from those in the screen. Calls follow the shape of the dose curve; as a rule, active = well fitted inhibition curve with a large enough effect; inconclusive = small, poorly fitted or top-dose-only effect; inactive = no such curve, though single readings can be large or run the other way. A potency beside an inconclusive call is a rough fit, not a confirmed value.

Biological target: Bromodomain adjacent to zinc finger domain protein 2B (Homo sapiens) (UniProt Q9UIF8)
UniProt Q9UIF8, sequence (Q9UIF8 whole entry, looked up, the tested form may be a part): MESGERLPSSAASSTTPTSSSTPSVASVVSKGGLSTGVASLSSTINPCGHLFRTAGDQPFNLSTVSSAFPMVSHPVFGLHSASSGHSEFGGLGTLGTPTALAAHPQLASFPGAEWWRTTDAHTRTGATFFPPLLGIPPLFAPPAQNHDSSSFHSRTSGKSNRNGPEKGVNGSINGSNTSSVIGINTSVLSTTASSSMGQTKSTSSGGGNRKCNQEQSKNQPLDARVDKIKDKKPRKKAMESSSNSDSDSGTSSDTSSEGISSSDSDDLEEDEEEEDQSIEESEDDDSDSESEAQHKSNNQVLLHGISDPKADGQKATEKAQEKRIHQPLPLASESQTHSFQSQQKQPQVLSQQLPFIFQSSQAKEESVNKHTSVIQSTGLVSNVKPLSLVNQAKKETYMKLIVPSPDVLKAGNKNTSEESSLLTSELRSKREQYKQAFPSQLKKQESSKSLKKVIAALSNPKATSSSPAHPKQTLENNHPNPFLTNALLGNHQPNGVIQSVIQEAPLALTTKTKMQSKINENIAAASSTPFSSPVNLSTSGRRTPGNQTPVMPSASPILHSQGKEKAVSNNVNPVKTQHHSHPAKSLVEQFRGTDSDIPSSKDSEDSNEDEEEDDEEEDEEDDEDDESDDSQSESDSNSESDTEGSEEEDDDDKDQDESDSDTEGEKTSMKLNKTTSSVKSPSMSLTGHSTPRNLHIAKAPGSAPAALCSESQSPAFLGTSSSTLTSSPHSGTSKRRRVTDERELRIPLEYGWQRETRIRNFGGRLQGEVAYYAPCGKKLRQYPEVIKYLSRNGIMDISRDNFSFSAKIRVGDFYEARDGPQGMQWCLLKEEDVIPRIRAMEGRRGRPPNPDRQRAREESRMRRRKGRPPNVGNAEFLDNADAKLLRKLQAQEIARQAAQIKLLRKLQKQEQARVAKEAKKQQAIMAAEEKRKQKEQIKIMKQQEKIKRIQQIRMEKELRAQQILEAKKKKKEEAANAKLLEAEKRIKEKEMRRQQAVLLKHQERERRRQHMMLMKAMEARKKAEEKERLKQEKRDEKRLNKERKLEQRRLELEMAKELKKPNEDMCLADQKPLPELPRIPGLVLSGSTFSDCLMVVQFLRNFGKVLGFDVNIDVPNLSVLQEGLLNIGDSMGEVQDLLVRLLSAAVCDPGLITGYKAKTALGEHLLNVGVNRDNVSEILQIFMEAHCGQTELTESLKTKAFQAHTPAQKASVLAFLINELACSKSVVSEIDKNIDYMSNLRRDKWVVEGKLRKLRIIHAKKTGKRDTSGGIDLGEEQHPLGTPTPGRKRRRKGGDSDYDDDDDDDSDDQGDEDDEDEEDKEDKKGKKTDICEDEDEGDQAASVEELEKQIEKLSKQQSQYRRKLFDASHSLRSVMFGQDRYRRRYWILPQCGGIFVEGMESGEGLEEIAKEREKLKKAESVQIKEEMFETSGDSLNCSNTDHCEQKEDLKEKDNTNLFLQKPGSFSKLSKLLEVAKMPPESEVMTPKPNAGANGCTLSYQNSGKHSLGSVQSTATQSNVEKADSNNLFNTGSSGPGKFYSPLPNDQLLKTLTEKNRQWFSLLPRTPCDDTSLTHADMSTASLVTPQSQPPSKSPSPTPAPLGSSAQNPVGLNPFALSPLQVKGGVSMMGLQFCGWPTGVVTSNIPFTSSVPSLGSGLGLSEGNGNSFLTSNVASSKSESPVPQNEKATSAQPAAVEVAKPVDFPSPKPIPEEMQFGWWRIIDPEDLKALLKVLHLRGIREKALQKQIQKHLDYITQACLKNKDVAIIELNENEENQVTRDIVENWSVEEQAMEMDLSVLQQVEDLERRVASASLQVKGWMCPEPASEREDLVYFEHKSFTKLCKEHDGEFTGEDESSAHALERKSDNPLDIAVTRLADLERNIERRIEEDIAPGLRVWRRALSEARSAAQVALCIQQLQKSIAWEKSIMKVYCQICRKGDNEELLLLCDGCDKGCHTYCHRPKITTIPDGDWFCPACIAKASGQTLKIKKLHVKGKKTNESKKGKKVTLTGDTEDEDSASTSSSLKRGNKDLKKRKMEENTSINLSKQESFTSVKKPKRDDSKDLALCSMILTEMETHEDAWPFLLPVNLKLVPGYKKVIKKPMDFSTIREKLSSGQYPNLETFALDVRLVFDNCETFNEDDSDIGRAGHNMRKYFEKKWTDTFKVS
Assay: qHTS Assay for Inhibitors of BAZ2B; also: nearly all actives have a fitted effect of over 60% in size
Conditions: AlphaScreen BAZ2B-H3K14Ac peptide displacement; activity change, negative = inhibition: at 114 µM (top of the series) unless noted
Outline: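 In this displacement format the biotinylated H3(5-23) peptide acetylated at Lys14 serves as ligand at 50 nM, with BAZ2B at 50 nM in PBS pH 7.4 containing 0.01% Tween-20. Donor and acceptor beads are 10 ug/mL final.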
% is scaled to controls: 0 for no effect and ±100 for the full control effect; potency is read from the fitted curve at half-maximal effect; tags tell the direction and shape of the fitted curve.

| SMILES | Potency | activity change, negative = inhibition |
| --- | --- | --- |
| CCCCN(CCCNC(=O)c1ccc(Sc2ccc(Cl)cc2)c(NC(C)=O)c1)c1ccccc1 | inconclusive: 12.6 µM [inhibitor, full curve, poor fit] |  |
| CCN(Cc1ccccc1)C(=O)c1cc2c(OC)c(OC)c(OC)cc2[nH]1 | inconclusive: 79.4 µM [inhibitor, single point] |  |
| COc1ccc([N+](=O)[O-])cc1-c1[nH]c(-c2ccc(C(=O)O)cc2)nc1-c1ccccc1 | inconclusive: 50.1 µM [inhibitor, partial curve] |  |
| Cc1cc(C)c(C(=O)N2CCCC(Nc3ccc(C)c(C)c3)C2)o1 (centres undefined) | inconclusive: 50.1 µM [inhibitor, partial curve] |  |
| COc1ccc(C2N(c3ccc(Cl)cc3)N=C(C(C)=O)N(C)N2C(C)=O)cc1 (centres undefined) | inconclusive: 25.1 µM [inhibitor, full curve] |  |
| COc1cc(O)oc1C=Nc1ccc(Oc2ccccc2)cc1 | inconclusive: 39.8 µM [inhibitor, full curve] |  |
| Cc1ccc(/C=C2/Sc3ccc(C(=O)NCc4ccccn4)cc3NC2=O)cc1 | inconclusive: 79.4 µM [inhibitor, single point] |  |
| CN(C)c1ccc(-c2nc3cnccn3c2Nc2cccc(C(F)(F)F)c2)cc1 | inconclusive: 2.82 µM [inhibitor, full curve, poor fit] |  |
| Cc1ccc(C(=O)Nc2ccccc2C(=O)O)cc1S(=O)(=O)Nc1ccccc1 |  | inactive: 1.36% |
| Cc1sc2nc(CN3CCN(c4ccc(O)cc4)CC3)[nH]c(=O)c2c1C | inconclusive: 70.8 µM [inhibitor, partial curve] |  |
| Cc1cc(C(=O)NNc2ccc(F)cc2)no1 |  | inactive: 3.2% |
| C(=N\Nc1ccccn1)/c1ccc2c(c1)OCCO2 | inconclusive: 50.1 µM [inhibitor, partial curve] |  |
| Cc1ccc(S(=O)(=O)NCC(c2ccc(N(C)C)cc2)N2CCc3ccccc32)cc1C (centres undefined) | active: 6.31 µM |  |
| COc1ccc(C(=O)Nc2nc3nc(-c4ccccc4)cc(=O)n3[nH]2)cc1 |  | inactive: 11.7% |
| COc1cccc(C(=O)N2CCN(Cc3ccccc3C(F)(F)F)CC2)c1 | active: 28.2 µM |  |
| COc1ccc(CCNc2nc(-c3ccncc3)cs2)cc1OC |  | inactive: -12.9% |
| Cn1c(=O)c2c(nc(NCc3ccco3)n2C/C=C/c2ccccc2)n(C)c1=O | inconclusive: 25.1 µM [inhibitor, partial curve] |  |
| COc1cc(S(=O)(=O)NCc2ccncc2)c(OC)cc1C |  | inactive: -19.2% |
| O=C(O)CN1C(=O)/C(=C/C=C/c2ccccc2)SC1=S | inconclusive: 89.1 µM [inhibitor, single point] |  |
| O=C1NC(c2ccccc2)=C(c2nc3ccccc3s2)C(c2ccc(O)cc2)N1 (centres undefined) | inconclusive: 70.8 µM [inhibitor, single point] |  |
| COC(=O)C1=C(C)NC(=O)/C1=C\c1cc(C)n(-c2ccccc2C)c1C | active: 44.7 µM |  |
| COc1ccccc1Nc1nc(N2CCOCC2)nc(N2CCOCC2)n1 | inconclusive: 79.4 µM [inhibitor, single point] |  |

| SMILES | Potency | activity change, negative = inhibition |
| --- | --- | --- |
| Cc1ccc(Nc2cc(C)c(O)c(C)c2)cc1 | active: 7.08 µM |  |
| O=C(CCSCc1ccccc1Cl)NCc1ccco1 | inconclusive: 79.4 µM [inhibitor, partial curve] |  |
| CN(C)c1ccc(C(=O)N2CCCC(N3CCN(Cc4ccc5c(c4)OCO5)CC3)C2)cc1 (centres undefined) | inconclusive: 70.8 µM [inhibitor, single point] |  |
| Nc1nonc1-n1nnc(C(=O)N/N=C/c2c(F)cccc2Cl)c1-c1ccc2c(c1)OCO2 | inconclusive: 89.1 µM [inhibitor, single point] |  |
| COc1cc2c(cc1OC)C(c1ccccc1C(F)(F)F)CC(=O)N2 (centres undefined) | inconclusive: 79.4 µM [inhibitor, partial curve] |  |
| COc1cccc(C(c2nnnn2Cc2ccccc2)N2CCN(C(=O)c3ccco3)CC2)c1OC (centres undefined) | inconclusive: 89.1 µM [inhibitor, single point] |  |
| CC(C)NC(=O)c1ccc(C(C)C)cc1 |  | inactive: -6.17% |
| O=[N+]([O-])c1ccc(S(=O)(=O)NCc2nc3cccnc3n2Cc2ccccc2Cl)cc1 |  | inactive: 1.72% |
| O=C(Nc1ccccc1)/C(=C/c1cccnc1)NC(=O)c1ccccc1 |  | inactive: -1.97% |
| Cc1c(C(=O)NCc2ccco2)oc2c(F)cccc12 | inconclusive: 89.1 µM [inhibitor, single point] |  |
| CCn1c(CSCc2ccc(C)cc2)n[nH]c1=S | inconclusive: 89.1 µM [inhibitor, single point] |  |
| O=C(Nc1nnc(-c2ccc(F)cc2)o1)c1cccc([N+](=O)[O-])c1 | inconclusive: 89.1 µM [inhibitor, single point] |  |
| CCc1ccc(NC(=O)CSc2nc3c(sc4ccccc43)c(=O)n2CCCOC)cc1 |  | inactive: -0.0148% |
| COc1ccc(Nc2nc(NCC3CCCO3)c3ccccc3n2)c(OC)c1 (centres undefined) | inconclusive: 50.1 µM [inhibitor, partial curve] |  |
| O=C(NCCN1CCOCC1)c1ccc(/C=C2\Sc3ccccc3N(Cc3ccccc3F)C2=O)cc1 | inconclusive: 20 µM [inhibitor, full curve] |  |
| C#CCOCCOCCOCCNc1nc(N2CCN(C(=O)Cn3cc(CCCN=C(N)N)nn3)CC2)nc(N2CCN(C(=O)Cn3cc(CCCN=C(N)N)nn3)CC2)n1 | inconclusive: 89.1 µM [inhibitor, single point] |  |
| CC(=O)c1cc(C#N)c(N2CC(C)OC(C)C2)nc1C (centres undefined) | inconclusive: 56.2 µM [inhibitor, partial curve] |  |
| CC(=O)NNC(=S)NC(=O)C(c1ccccc1)c1ccccc1 |  | inactive: -5.21% |
| COc1ccc2nc(N(CCN(C)C)C(=O)c3ccc4c(c3)OCCO4)sc2c1 | inconclusive: 70.8 µM [inhibitor, single point] |  |
| CCc1cc(C(=O)N/N=C/c2c(C)[nH]c3ccccc23)cs1 | inconclusive: 50.1 µM [inhibitor, partial curve] |  |
| NC(=O)CNc1n[nH]c(=S)[nH]c1=O |  | inactive: -5.5% |
| O=C(NC(=S)NC1CCCCC1)c1ccccc1[N+](=O)[O-] | inconclusive: 31.6 µM [inhibitor, partial curve] |  |
